Laboratory results: PubChem BioAssay (NCATS)
Inconclusive results, whose numbers are uncertain, are shown with a selection of clear calls. For some of these results: Potencies beside an inconclusive call are fits to weak or partial responses and may not hold up. The source made the active and inactive calls. Unless noted, calls follow the shape of the dose curve; as a rule, active = well fitted curve in the direction sought with a large enough effect; inconclusive = small, poorly fitted or top-dose-only effect, or another doubt; inactive = no such curve, though single readings can be large; an effect the other way counts as inactive or inconclusive.

Tests used:
[1] = target: Aldehyde dehydrogenase, mitochondrial (Homo sapiens) (UniProt P05091); assay: qHTS for Inhibitors of the Aldehyde Dehydrogenase Family (ALDH2) Confirmatory screens (AID 2061303; active = well fitted inhibition curve with a large enough effect; inconclusive = small, poorly fitted or top-dose-only effect; inactive = no such curve, though single readings can be large or run the other way; title and protocol of this record describe different tests; also: nearly all actives have a fitted effect of over 45% in size); details: ALDH inhibition qHTS; activity change, negative = inhibition: at 45.4 µM (top of the series)
[2] = qHTS for Inhibitors of the Aldehyde Dehydrogenase Family (ALDH1A2, ALDH1A3, ALDH2, ALDH3A1) (AID 2061307); details: ALDH inhibition qHTS; activity change, negative = inhibition: at 50.3 µM (top of the series) unless noted; also: nearly all actives have a fitted effect of over 50% in size; as to Potency: test system not described further here
[3] = target: Aldehyde dehydrogenase, mitochondrial (Homo sapiens) (UniProt P05091); assay: qHTS for Inhibitors of the Aldehyde Dehydrogenase Family (ALDH2) Primary screen (AID 2061308); also: nearly all actives have a fitted effect of over 55% in size
[4] = target: Retinaldehyde dehydrogenase 3 (Homo sapiens) (UniProt P47895); assay: qHTS for Inhibitors of the Aldehyde Dehydrogenase Family (ALDH1A3) Confirmatory screens (AID 2061311); details: activity change, negative = inhibition: at 46 µM (top of the series); also: nearly all actives have a fitted effect of over 60% in size
[5] = target: Retinal dehydrogenase 2 (Homo sapiens) (UniProt O94788); assay: qHTS for Inhibitors of the Aldehyde Dehydrogenase Family (ALDH1A2) Confirmation screens (AID 2061314); details: activity, negative = inhibition: at 45.9 µM (top of the series) unless noted; also: nearly all actives have a fitted effect of over 65% in size
[6] = target: Retinaldehyde dehydrogenase 3 (Homo sapiens) (UniProt P47895); assay: qHTS for Inhibitors of the Aldehyde Dehydrogenase Family (ALDH1A3) Validation screen (AID 2061312); details: ALDH1A3 enzyme inhibition qHTS validation, fluorescence; activity change, negative = inhibition: at 84.7 µM (top of the series); also: nearly all actives have a fitted effect of over 45% in size
[7] = target: Retinaldehyde dehydrogenase 3 (Homo sapiens) (UniProt P47895); assay: qHTS for Inhibitors of the Aldehyde Dehydrogenase Family (ALDH1A3) Primary screen (AID 2061315); details: ALDH inhibition qHTS; activity change, negative = inhibition: at 56 µM (top of the series) unless noted
[8] = target: Aldehyde dehydrogenase 1A1 (Homo sapiens) (UniProt P00352); assay: qHTS for Inhibitors of the Aldehyde Dehydrogenase Family (ALDH1A1) Confirmatory screens (AID 2061316); details: activity change, negative = inhibition: at 47.3 µM (top of the series); also: nearly all actives have a fitted effect of over 65% in size
Potency is read from the fitted curve at half-maximal effect; tags tell the direction and shape of the fitted curve.

Structure (SMILES)	Potency [1]	Potency [2]	Potency [3]	Potency [4]	Potency [5]	Potency [6]	Potency [7]	Potency [8]
CC(C)(C)NS(=O)(=O)c1cccc(Nc2nn3c(=O)c4ccccc4nc3s2)c1	inconclusive: 22.5 µM [inhibitor, partial curve]	active: 22.5 µM	inconclusive: 22.4 µM [inhibitor, partial curve]	inconclusive: 22.5 µM [inhibitor, single point]	inconclusive: 22.5 µM [inhibitor, partial curve]			
COc1cccc(CNc2ccc(S(=O)(=O)Nc3cccs3)cc2)c1O	inconclusive: 11.3 µM [inhibitor, partial curve]	inconclusive: 3.57 µM [inhibitor, partial curve]	inconclusive: 1 µM [inhibitor, full curve, poor fit]	inconclusive: 14.2 µM [inhibitor, partial curve, poor fit]	inconclusive: 6.34 µM [inhibitor, partial curve]			
O=S1(=O)N=C(Sc2cccc3cccnc23)c2ccccc21	inconclusive: 28.3 µM [inhibitor, partial curve]	inconclusive: 0.1 µM [inhibitor, full curve, poor fit]	inconclusive: 7.94 µM [inhibitor, full curve, poor fit]	inconclusive: 12.7 µM [inhibitor, partial curve, poor fit]				
O=C(NCCCCc1ccccc1)C1CCN(c2nc(-c3ccc(Br)cc3)cs2)CC1	inconclusive: 0.282 µM [inhibitor, full curve, poor fit]	active: 3.57 µM	inactive	inconclusive: 22.4 µM [inhibitor, full curve, poor fit]				
COc1ccc(-c2ccc(CNc3ccc(N4CCN(C(=O)OC(C)(C)C)CC4)cc3)o2)cc1	active: 1.13 µM	inactive	inconclusive: 0.355 µM [inhibitor, full curve, poor fit]	inactive				
COc1cc2c(cc1NS(=O)(=O)c1ccc(Br)cc1C)n(C)c(=O)n2C	inconclusive: 14.2 µM [inhibitor, partial curve, poor fit]	inactive	inconclusive: 11.2 µM [inhibitor, partial curve]	inconclusive: 25.2 µM [inhibitor, partial curve, poor fit]		active: 31.6 µM	inconclusive: 8.91 µM [inhibitor, full curve]	inactive
Cc1ccnc(NC(=S)N2CCN(c3cc(Cl)cc(Cl)c3)CC2)c1	inconclusive: 17.8 µM [inhibitor, partial curve, poor fit]	inconclusive: 5.62 µM [inhibitor, full curve, poor fit]	active: 2.24 µM	inconclusive: 6.34 µM [inhibitor, partial curve]	inconclusive: 25.2 µM [inhibitor, partial curve, poor fit]		inconclusive: 1 µM [inhibitor, full curve]	active: 5.65 µM
CC(=O)N1CCN(c2ccc(NCc3ccco3)cc2)CC1	inconclusive: 11.3 µM [inhibitor, partial curve]	active: 4 µM	inconclusive: 2.51 µM [inhibitor, full curve]	active: 10.1 µM	active: 14.2 µM		inconclusive: 10 µM [inhibitor, partial curve, poor fit]	
CC(=O)N1CCN(c2ccc(NCc3ccc(-c4cccc(Cl)c4)o3)cc2)CC1	active: 1.13 µM	active: 1.59 µM	active: 2.24 µM	inconclusive: 35.7 µM [inhibitor, partial curve, poor fit]	inconclusive: 12.7 µM [inhibitor, partial curve]		inconclusive: 25.1 µM [inhibitor, partial curve, poor fit]	
O=S(=O)(Nc1nc2ccccc2s1)c1ccc(NCc2ccc(Br)cc2O)cc1	inconclusive: 12.7 µM [inhibitor, partial curve]	inconclusive: 25.2 µM [inhibitor, single point]	inconclusive: 31.6 µM [inhibitor, partial curve]	active: 14.2 µM	inconclusive: 17.9 µM [inhibitor, partial curve]		inconclusive: 14.1 µM [inhibitor, partial curve]	inconclusive: 7.12 µM [inhibitor, full curve]
